Some of the results follow. At the low end of the ranking, values are background and their order means little. The protein was read in a cell extract, so binding may be indirect.
target: T1, HNF4alpha2 (COS-7 nuclear extract) (UniProt P41235); experiment: protein-binding microarray; conditions: COS-7 nuclear extract on double-stranded Agilent 4x180k PBM; binding buffer, salt, pH and temperature not given; high values mean tight binding; double strand, one strand shown; sequences stand for … in …GCCTAGGGAGATTAGAGTATCGGTCGA
T1 sequence: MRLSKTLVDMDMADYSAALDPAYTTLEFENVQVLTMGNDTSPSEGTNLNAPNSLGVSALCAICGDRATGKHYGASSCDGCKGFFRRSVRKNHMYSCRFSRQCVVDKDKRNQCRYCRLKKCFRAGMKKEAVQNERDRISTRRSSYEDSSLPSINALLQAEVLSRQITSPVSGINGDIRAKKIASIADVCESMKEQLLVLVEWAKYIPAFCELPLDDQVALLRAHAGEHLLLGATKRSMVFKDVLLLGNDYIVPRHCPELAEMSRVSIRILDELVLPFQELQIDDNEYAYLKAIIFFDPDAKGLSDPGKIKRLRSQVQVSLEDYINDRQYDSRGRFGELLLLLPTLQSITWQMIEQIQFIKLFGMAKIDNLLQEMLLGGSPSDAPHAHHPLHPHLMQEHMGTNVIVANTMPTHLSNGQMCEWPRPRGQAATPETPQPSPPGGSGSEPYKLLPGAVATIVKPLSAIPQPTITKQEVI

Row | Sequence | binding signal (log2 normalized intensity)
1 | GTGGTACTCCAAAGGTCAGTTTAATTTTTG | 3.67
2 | GGGCGCACAAGATGCCGCCTCCCCGGGGAT | -1.15
3 | GAGATGGCCCCTCTCTTTTATTATATTGAA | 0.894
4 | GGGGGTTGCAAGTCTGAGGCTGCTCTCTGT | -0.211
5 | TTGAGTTTGCTCTGCTACTAACTGCATGAC | -0.452
6 | TAGTCTTATCTCAAAGGGAGATTCCTGACA | 0.393
7 | GTGTATGGACTGTAATACACAAGCAATAGG | -1.03
8 | TAGCTCGGGGGCCCTTCCCCCCTCTGCAGC | 2.42
9 | GGCAAAAGAGATAGCGAGAAGGCAGGTAGA | -1.02
10 | CAGCAATCACCTACCCCCAGATTCTCTGTT | 2.35
11 | TGATGACTTTTGACCCCAGGGGAAACTCCA | 3.99
12 | TGTACAATGGAAGTGAGTCAGTTCTGTCCA | 0.757
13 | CTAACCCCTAACCCAGTGAATTCCTTCCTT | 2.05
14 | GGAGAGAGTTTGGCCCCAGTTCCCATGGAC | 1.18
15 | GGTGAGCAGAGGGAGGACAAAGTTCTGTCC | 1.09
16 | TCAGTAAATCTTAGAGAACACTCCTCCCCT | 3.16
17 | GGACTTGATCCAGGGCAAAGGTCATAATTT | 6.98
18 | GGCTGGCCCTGAGCCAAGGGAGCACAACCC | -1.21
19 | GAGCAAATACTTATGATATGAAGCATTGCT | -1.12
20 | AACATTACTAACTGGACTTTATCTACCATT | 1.72
21 | ATCTTTTCTTTTAAAAAGCTGCAATGGCTT | -1.08
22 | GTGTCAGCATCTAAACCTCTGCACACAGGA | -1.16
23 | CGGATCCTCCCAGCCTGGAGGAGGGCGAGG | -1.17
24 | AGAATTCCAGAGATGCCAGGAGAGCCGAAG | -1.07
25 | GATAGCCTTTGCCTCCACCTTCTCTCCCAC | 0.506

Row | Sequence | binding signal (log2 normalized intensity)
26 | AAGTTCCCCGGGCAGCTGTGTTTGCAGCCG | -1.01
27 | GACGCTCAGTAAATCTGCACTTTACGTAAG | -1.03
28 | ATGCTGGTCTCCTTGCCCCACCCCCCACCC | 7.6
29 | ATCCTGCCTCCATTAATTAACCTTTGAGCT | 5.75
30 | GTCCTAAAGAGGATATCCTGGCAGTGTGGA | 0.914
31 | TAGGAGGTCAGCACAAGATACAGCTTATCA | -1.21
32 | CTGTTTATGGGTTAACAGAATGAACAGCTC | 1.22
33 | GCTGAGGTTAGAATCCTTATCTGGTGTGCT | 0.171
34 | TAAGTGGAATGTTGCTGTGCTGCCCTCTTG | 2.51
35 | TTGTCTGACTGTGATACCAGGGGTCATTTT | 4.17
36 | GATAACAGCTTGATAATCCCCATGGGACCA | -1.09
37 | GTCACGTGTGACCAAGGACAAACTGAGGAG | -0.811
38 | CAATGTGACTGGAGCAGAGCGATCAAAGGT | 0.667
39 | TTACCCGCTTAAGAGTGAATTCTGCAGCAG | -0.966
40 | AGCCTGCCCTCCTAGGGACAGGTGCGACGA | -1.12
41 | AGTCAGAAGAACTGATTCCAAAGGAAATCA | -1.16
42 | AACAGAGATTTGCAGCTCAAAGTGCTTTTC | -0.764
43 | GAAAAACTGAGCTTTAGATAGCTGTTAAAT | -0.652
44 | TTAACAAGCATTTTGTTCCCATTGATCATT | 1.23
45 | AATGTCTGGAAGTTCTTCCTTAAGTCTAAC | 0.81
46 | TATGGCCTTTCTTCATTGTTCGCATACCTC | 1.51
47 | TCGGCCTTTGACCTCGTGATAACGACATTC | 3.69
48 | AACCTAGCCCCCTTTCCCTTATCTTTGTTA | 2.42
49 | GGAGCAATCATCGCACCTAAGGGCACCCTT | -1.19
50 | TTTGCACAGTACTGATCTGGGGCCTATCTT | 0.204

Row | Sequence | binding signal (log2 normalized intensity)
51 | CAAAGCCCCTTTCCACTCTACCGTCCTCCC | 1.91
52 | CAAGCAAACTGCAAATACAGGTGAATTTCA | -1.13
53 | TAACCATACTGAGTGTTGGTCAGGACGTGA | 0.874
54 | ACCTTTGAGCTGAGTTCCACAGATAAGGAG | -0.731
55 | AGTCCTGCATGTGTTCACACCACACTCTCC | -0.662
56 | CCAAAAGACCACACTCATCAGGTGAGATAA | -1.27
57 | ATCATTAGGGAAAATAGTGACCCTGTCTCT | 2.12
58 | TCCCTTTGTCTCCAGGCCCTGGGATTGGCT | -0.699
59 | AGAGAGCCAGATGAAGCTGCAGCCTTAAGA | -1.2
60 | AGAATAAATCTGTTAGCAGAGCAATTACTC | -1.01
61 | AACTGTCTCTGTTGCTCAATTCTGCTGTTG | 0.745
62 | GATTTACCTCTGACCACTCTGCCAGGTGAC | -1.11
63 | ACTGATTCCAAAGGAAATCACATAGTAACA | -1.02
64 | TTTTTACCATCTCCAACATGACCACCTGGT | 1.6
65 | GCAAGTATTTCACCCCAGAGGCTAAATGAC | -0.182
66 | GTCAGTTCATTAAAAAAAAAAAAAAATACT | -0.903
67 | GTATCAGGGCTCAGGAATGTGGGGTCAACA | 2.99
68 | GTGGAGTTGACACAGACCTGCCTCTCTCTC | -1.12
69 | TAGGCTGTAGAGGAGATGTGGTGGACTTTA | 4.25
70 | CCACTGCCTGCCTGCCAACTCCACGCCCGC | -1.14
71 | CTTCAAAGAAGAGCTCAGTCACAGCAGTGG | -1.15
72 | TATGCCCCCCCACCCCACACACACACAGCA | 6.17
73 | AGACATTCTGGCAAAGCCAATCTGCTTAAA | -1.21
74 | TGGACCCAGCTGGTAAGTGCAAGGCCCAGC | -1.07
75 | CCTGACTCATAGCTCCAGAGCCACCGCTAC | -1.14

Row | Sequence | binding signal (log2 normalized intensity)
76 | CACTGTAACAGTTCAAGCAGTATTTGTGCC | 0.305
77 | ACGCTCCCAGTATGAGCGGCGCTGACCCCG | 4.58
78 | ACGAATGGGCAAAACATTCCTAAACAAGGG | -1.1
79 | CTGAGCAGGGGACTAAGAGCAGCCTGACTA | -1.06
80 | CTAAGCAGCGAAGCTGTGTCAGGCATTGTA | -0.168
81 | TCTGATGAGTCCCCCGGCTCTACGCAAGTG | 2.6
82 | CGCAAGCATATCTCTAGATCTCAGTTGGTC | 1.2
83 | AGGCTAAGGCAGGAGAATCGCTTGAACCCA | 1.39
84 | GACCTAGAAGCCAGGGACCAGGAAGGCAGT | -1.15
85 | CGCCCGCGCCGGCCTCGGTCCTCGCTCGCC | -1.1
86 | AGAGTTAATCTGTTTACACAGTGAGATGGC | 0.479
87 | TGTGCAGAGGAGGGGGCAGGAGCCCAAGAA | -1.11
88 | TCTCTGACTGGAAGTTGCCCGAGCTGCCCT | 1.86
89 | ACAAGATCTTTGGACTATTGTGAAGTGATA | 1.9
90 | TTTCAAGAATGGAGAAAACAACATTCCTTG | -0.213
91 | GCATTCCTGCACACCTGCCTTTGATCAGGG | -0.679
92 | CTCTTTAGGCTGGACTCTGACCCATTCCTT | 5.23
93 | GAGAGTCCTCTTGGTTTATGTTCACCTCAG | 0.597
94 | AGTACCGCTCCTCTCTGTATTCCCTCTCTT | 0.0392
95 | ACAGGAGATCAGATGGGGTGAACTTTGGAC | 8.41
96 | CAATGAACAAAGGTCGGTGGTATGTGTGTG | 3.25
97 | TGGTGCTTTTGATATTGTTGTAAAGCAGTG | 1.91
98 | ATGAGTGACCTTTATCCAGTTCTGTGTACA | 3.17
99 | AAAGCTGGCTGGCGGCTAGTGTACAGGTGA | 1.06
100 | ACAGAGAAGGCCCTGAACTCCCAGCCTCCA | -1.21

Row | Sequence | binding signal (log2 normalized intensity)
101 | TTTCTCTCCTAAGCAGGACAGCAGAGTGGA | -0.691
102 | AAAGCTTTTTGATTGCTTATAGCTTGCTTC | -1.23
103 | GCCTTCCCCTGCCACTTTCACAAATCATTA | 1.19
104 | AGCTGGGCTATACAATTCCAGCAAGGATGG | -1.2
105 | ATGCACTCATAACTAGGGTTCCAAGACCAA | -1.17
106 | TATTTACATACCTTAGGCTGTGCATATTGG | 1.25
107 | TTCAAGCCTGAACAAACATGAGGGACTGGG | -1.07
108 | GATTCCTCTTGAATTGGAAGGCAAAGTTCA | 3.17
109 | TGCCTGCCGGCTCTGAAGAGAACGGCTGAT | -1.07
110 | TCCAGCTGTTGGTGACTGACCCTGATCCCT | 2.81
111 | GTGTTCCTTTTTCTGTTCAATGGTGCTTTT | 2.2
112 | TTAAGTTTTCGAGGAGTCAAAAGGTGTATG | 1.31
113 | GGTGAGCCATTGGCTGGGGTGTCGGCGAGT | -0.92
114 | GAGTTTAGGGACCGCAAATAAAAGAGGGCC | -1.1
115 | AGAGCACATTCTTCCATATAACCCTTGAAC | 3.6
116 | GCACAGCAGATGCTGGGCAAAGGGCAAGGC | 3.03
117 | CTCAACCTCCCCCTGGGGACAGGTGTTAAT | 2.19
118 | GATAACAGCACATTCCTTAACATGGTTTGC | 0.97
119 | TCCTCCTCCTGTTTGTATTCCTTGTCCTTG | 2.28
120 | ATTTCACCTTTGGTCTTTGGTGAAACTCCA | 2.57
121 | GGGTTTGTTTTTTGCCCTTTGTACCCACAC | 7.67
122 | TTGTCCTATGACTCTCTCAACACTGGCTTC | 0.184
123 | TAGCCTCTGGGCTGGCTTTAGCTCAGCGGT | -1.19
124 | ATCAAAGGCTTCTAGAAGAGGTTAAAGACC | 1.01
125 | TAACATCTTTTCTCAGTTAACTGGAATGAA | 1.22

Row | Sequence | binding signal (log2 normalized intensity)
126 | TGGCAGATTAGAGACCTCTAGACTCCAGCT | -1.12
127 | AGAAAGAAACAGGGGATGTTGATTCCCCTG | -1.24
128 | ATTTACTGAATGAATGTCCAACTTGCCCTG | 1.64
129 | CTCTGTTTGATCAGCTGGTCCTTCAAGTGT | 1.96
130 | GCATAACCAAACAGAGAGAAAGCAGTGACC | 0.1
131 | GTGCCCTTACATTTTGCTCTTTGTACCGTT | 4.56
132 | TTGATGGGCAGCGCGGCGCGCTGGGAAGGC | -1.01
133 | CTGTGAGTCAGGTACCTGCTTCTGCCCCAG | 1.3
134 | TTGCATATGCCACAGGGCAAGACACCAAAG | -1.08
135 | CCTCTGAAAACTTTTACTGGGAAGAGATAA | 0.0146
136 | AGCACAACCCGGGCGCACAAGATGCCGCCT | -1.08
137 | GCAAAAATGCCAGGCATTTGCGATAATAGA | -1.13
138 | TTAGCTATCAGTGTTGACCTCTGGACCTCA | 6.97
139 | GGAGAACAAAGTTCACCTTTCCCTTCTTCT | 2.51
140 | GAGAGAGAGAGAGGTGGGCAAAGGTCTCAA | 2.55
141 | TCACAAAGGGCTGAGGTTAAAGTCCACATT | 7.04
142 | GAATTCTCTAAGTAATCAATGGTTGCACTC | 1.06
143 | GATAACTGGGGGCAAAGGTTCACTTTGGGG | 4.16
144 | TTGGGGCTGATGTCTTTCTGGCCAGAGGGG | -0.225
145 | AGCAGCATAAAGGACTTTCAACCCTGTGAT | 2.9

Source: publication PMC10726135
